Reference: the supplement of paper PMC4604168 (melanoma cell lines)
Some of the results follow. Single values are uncertain, as repeats are few or missing.

Tests used:
Experiment in all cases: cell count relative to DMSO control; melanoma cells; higher = more viable cells
Settings in all cases: library dose: standard library concentration; 72 h
G361 = system: G361
IPC-298 = system: IPC-298
IST-MEL1 = system: IST-MEL1
LB2518-MEL = system: LB2518-MEL
LOXIMVI = system: LOXIMVI
MEL-HO = system: MEL-HO
MZ2-MEL = system: MZ2-MEL
MeWo = system: MeWo
RPMI7951 = system: RPMI7951
RVH-421 = system: RVH-421
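Further: cells treated in 1,536-well plates, then fixed and DAPI-stained, with nuclei counted from automated high-throughput microscope images.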

Compound	cell count (G361)	cell count (IPC-298)	cell count (IST-MEL1)	cell count (LB2518-MEL)	cell count (LOXIMVI)	cell count (MEL-HO)	cell count (MZ2-MEL)	cell count (MeWo)	cell count (RPMI7951)	cell count (RVH-421)
C=C(c1ccc(C(=O)O)cc1)c1cc2c(cc1C)C(C)(C)CCC2(C)C [Bexarotene] + C=CCNC1=C2C[C@@H](C)C[C@H](OC)[C@H](O)[C@@H](C)/C=C(\C)[C@H](OC(N)=O)[C@@H](OC)/C=C\C=C(/C)C(=O)NC(=CC1=O)C2=O [Tanespimycin] (first compound 10 µM, partner dose 0.01 µM)	57.2%	78.2%	53.1%	68%	105%	74.7%	93.7%	59.1%	18.9%	101%
C=C(c1ccc(C(=O)O)cc1)c1cc2c(cc1C)C(C)(C)CCC2(C)C [Bexarotene] + COCC[n+]1c2c(n(Cc3cnccn3)c1C)C(=O)c1ccccc1C2=O [YM155] (first compound 10 µM, partner dose 0.002 µM)	88.3%	60.4%	54.5%	65.9%	79.2%	125%	6.93%	62.2%	72.5%	114%
CN(c1ncccc1CNc1nc(Nc2ccc3c(c2)CC(=O)N3)ncc1C(F)(F)F)S(C)(=O)=O + CCCS(=O)(=O)Nc1ccc(F)c(C(=O)c2c[nH]c3ncc(Cl)cc23)c1F [PLX4720] (first compound 0.4 µM, partner dose 0.4 µM)	58.6%	73.7%	80.7%	84.2%	76%	79.2%	76.6%	105%	62.2%	64.2%
NC1(c2ccc(-c3nc4ccn5c(=O)[nH]nc5c4cc3-c3ccccc3)cc2)CCC1 + COc1cc(Nc2ncc(F)c(Nc3ccc4c(n3)NC(=O)C(C)(C)O4)n2)cc(OC)c1OC [Tamatinib] (first compound 2 µM, partner dose 2 µM)	64.4%	91.5%	57.6%	54.4%	21.1%	56%	74.2%	63.7%	25.2%	76%
C=C(c1ccc(C(=O)O)cc1)c1cc2c(cc1C)C(C)(C)CCC2(C)C [Bexarotene] + CO[C@@H]1[C@H](N(C)C(=O)c2ccccc2)C[C@H]2O[C@]1(C)n1c3ccccc3c3c4c(c5c6ccccc6n2c5c31)C(=O)NC4 [Midostaurin] (first compound 10 µM, partner dose 0.4 µM)	60.6%	66.9%	65.8%	62.5%	87.3%	81%	65.2%	64.4%	51.3%	72.5%
C=C(c1ccc(C(=O)O)cc1)c1cc2c(cc1C)C(C)(C)CCC2(C)C [Bexarotene] + NC(=O)Nc1cc(-c2cccc(F)c2)sc1C(=O)N[C@H]1CCCNC1 [AZD7762] (first compound 10 µM, partner dose 0.1 µM)	85%	89.9%	92.4%	73.1%	96.5%	85.9%	81.9%	95.9%	43.5%	127%
CN(c1ncccc1CNc1nc(Nc2ccc3c(c2)CC(=O)N3)ncc1C(F)(F)F)S(C)(=O)=O + NC(=O)Nc1cc(-c2cccc(F)c2)sc1C(=O)N[C@H]1CCCNC1 [AZD7762] (first compound 0.4 µM, partner dose 0.1 µM)	80.3%	109%	96.4%	102%	64.4%	93%	97%	110%	50.1%	127%
CN(c1ncccc1CNc1nc(Nc2ccc3c(c2)CC(=O)N3)ncc1C(F)(F)F)S(C)(=O)=O + COc1ccc(-c2ccc3c(N4CCOCC4)nc(N4C[C@@H](C)O[C@@H](C)C4)nc3n2)cc1CO [KU0063794] (first compound 0.4 µM, partner dose 0.1 µM)	88.2%	90.4%	83.2%	77%	90.4%	86%	70.5%	76.7%	55.7%	64.5%
CS(=O)(=O)c1ccc(C(=O)Nc2ccc(Cl)c(-c3ccccn3)c2)c(Cl)c1 [vismodegib] + Cc1nc(Nc2ncc(C(=O)Nc3c(C)cccc3Cl)s2)cc(N2CCN(CCO)CC2)n1 [dasatanib] (first compound 5 µM, partner dose 0.02 µM)	80.3%	82.1%	71.3%	116%	15.8%	86.6%	57%	79.7%	37.7%	76.8%
CCCS(=O)(=O)Nc1ccc(F)c(C(=O)c2c[nH]c3ncc(Cl)cc23)c1F + COCC[n+]1c2c(n(Cc3cnccn3)c1C)C(=O)c1ccccc1C2=O [YM155] (first compound 0.4 µM, partner dose 0.002 µM)	61.7%	48.7%	39.4%	25.7%	44.8%	70.1%	16.3%	42.6%	36.2%	29.6%
NC1(c2ccc(-c3nc4ccn5c(=O)[nH]nc5c4cc3-c3ccccc3)cc2)CCC1 + C[C@@H](Oc1cc(-c2cnn(C3CCNCC3)c2)cnc1N)c1c(Cl)ccc(F)c1Cl [Crizotinib] (first compound 2 µM, partner dose 1 µM)	70.4%	87.3%	79.2%	70.8%	127%	68.4%	94.2%	65.7%	70.7%	165%
NC1(c2ccc(-c3nc4ccn5c(=O)[nH]nc5c4cc3-c3ccccc3)cc2)CCC1 + COc1cc2c(Oc3ccc4[nH]c(C)cc4c3F)ncnc2cc1OCCCN1CCCC1 [cediranib] (first compound 2 µM, partner dose 2 µM)	84.8%	111%	80.5%	87.6%	62.2%	77.5%	98.4%	79.9%	93.3%	70%
CN(c1ncccc1CNc1nc(Nc2ccc3c(c2)CC(=O)N3)ncc1C(F)(F)F)S(C)(=O)=O + OCc1c[nH]c2ccccc12 [Indole-3-carbinol] (first compound 0.4 µM, partner dose 4 µM)	83.9%	86.2%	85.7%	90.6%	123%	87.2%	84.8%	89.4%	66.7%	90.5%
CN(c1ncccc1CNc1nc(Nc2ccc3c(c2)CC(=O)N3)ncc1C(F)(F)F)S(C)(=O)=O + CC(C)(C)c1cnc(CSc2cnc(NC(=O)C3CCNCC3)s2)o1 [SNS-032] (first compound 0.4 µM, partner dose 0.05 µM)	82.6%	102%	84.9%	64.6%	58.4%	88.7%	91.2%	83.2%	16.3%	79.6%
CCCS(=O)(=O)Nc1ccc(F)c(C(=O)c2c[nH]c3ncc(Cl)cc23)c1F + CC1(C)NC(=O)N(c2ccc([N+](=O)[O-])c(C(F)(F)F)c2)C1=O [nilutamide] (first compound 0.4 µM, partner dose 5 µM)	62.8%	94.2%	83.8%	84%	91.5%	97.3%	94.1%	108%	156%	109%
NC1(c2ccc(-c3nc4ccn5c(=O)[nH]nc5c4cc3-c3ccccc3)cc2)CCC1 + CN(NC(=O)CC(=O)NN(C)C(=S)c1ccccc1)C(=S)c1ccccc1 [STA4783] (first compound 2 µM, partner dose 0.03 µM)	46.6%	72.4%	40.5%	22.8%	49.3%	66.5%	97.9%	17.6%	87.1%	50.7%
CS(=O)(=O)c1ccc(C(=O)Nc2ccc(Cl)c(-c3ccccn3)c2)c(Cl)c1 [vismodegib] + CC(C)C[C@H](NC(=O)[C@H](Cc1ccccc1)NC(=O)c1cnccn1)B(O)O [Bortezomib] (first compound 5 µM, partner dose 0.005 µM)	0.897%	6.15%	6.71%	2.12%	14.3%	24.2%	1.62%	19.5%	3.88%	9.15%
NC1(c2ccc(-c3nc4ccn5c(=O)[nH]nc5c4cc3-c3ccccc3)cc2)CCC1 + N#Cc1c(O)c2c(-c3ccc(-c4ccccc4O)cc3)csc2[nH]c1=O [A769662] (first compound 2 µM, partner dose 10 µM)	69%	88.4%	67.7%	85.3%	73.4%	62.6%	95.8%	70.1%	77.5%	84%
CN(c1ncccc1CNc1nc(Nc2ccc3c(c2)CC(=O)N3)ncc1C(F)(F)F)S(C)(=O)=O + CN(C)S(=O)(=O)c1ccc2c(c1)/C(=C/c1cc3c([nH]1)CCCC3)C(=O)N2 [SU6656] (first compound 0.4 µM, partner dose 2 µM)	67.7%	62.9%	71.3%	59.8%	95.6%	81.3%	74.2%	75.4%	48.2%	59.4%
CN(c1ncccc1CNc1nc(Nc2ccc3c(c2)CC(=O)N3)ncc1C(F)(F)F)S(C)(=O)=O + CC1(C)NC(=O)N(c2ccc([N+](=O)[O-])c(C(F)(F)F)c2)C1=O [nilutamide] (first compound 0.4 µM, partner dose 5 µM)	69.9%	97.9%	71.1%	76.8%	74.1%	89.2%	94.1%	95.1%	59.8%	65.4%
CCCS(=O)(=O)Nc1ccc(F)c(C(=O)c2c[nH]c3ncc(Cl)cc23)c1F + O=C(CCCCCCC(=O)Nc1ccccc1)NO [vorinostat] (first compound 0.4 µM, partner dose 0.4 µM)	63.8%	83.6%	82.1%	93.6%	98.7%	86.1%	75.9%	85.2%	79.7%	86.6%
C=C(c1ccc(C(=O)O)cc1)c1cc2c(cc1C)C(C)(C)CCC2(C)C [Bexarotene] + O=S(=O)(c1ccccc1)N(CC(F)(F)F)c1ccc(C(O)(C(F)(F)F)C(F)(F)F)cc1 [T0901317] (first compound 10 µM, partner dose 7 µM)	62.3%	63.1%	76.6%	96.3%	95.2%	67.9%	102%	76.2%	72.3%	68.8%
CS(=O)(=O)c1ccc(C(=O)Nc2ccc(Cl)c(-c3ccccn3)c2)c(Cl)c1 [vismodegib] + C[C@@H](Oc1cc(-c2cnn(C3CCNCC3)c2)cnc1N)c1c(Cl)ccc(F)c1Cl [Crizotinib] (first compound 5 µM, partner dose 1 µM)	94.7%	96.3%	96%	75.8%	132%	107%	84.1%	77.5%	85.8%	87%
C=C(c1ccc(C(=O)O)cc1)c1cc2c(cc1C)C(C)(C)CCC2(C)C [Bexarotene] + Nc1cccc2c1CN(C1CCC(=O)NC1=O)C2=O [lenalidomide] (first compound 10 µM, partner dose 5 µM)	78.8%	83.5%	84.5%	102%	77%	109%	67.9%	98.8%	54.1%	74.5%
C=C(c1ccc(C(=O)O)cc1)c1cc2c(cc1C)C(C)(C)CCC2(C)C [Bexarotene] + Cn1cncc1[C@@](N)(c1ccc(Cl)cc1)c1ccc2c(c1)c(-c1cccc(Cl)c1)cc(=O)n2C [tipifarnib] (first compound 10 µM, partner dose 0.05 µM)	85.1%	93.9%	77.7%	86.3%	102%	100%	120%	88.6%	77.8%	78.3%
CN(c1ncccc1CNc1nc(Nc2ccc3c(c2)CC(=O)N3)ncc1C(F)(F)F)S(C)(=O)=O + COc1cc2c(Oc3ccc4[nH]c(C)cc4c3F)ncnc2cc1OCCCN1CCCC1 [cediranib] (first compound 0.4 µM, partner dose 2 µM)	71.6%	103%	78.5%	–	49.4%	84.4%	–	81.4%	53.4%	77.1%
C=C(c1ccc(C(=O)O)cc1)c1cc2c(cc1C)C(C)(C)CCC2(C)C [Bexarotene] + COc1ccc(COc2ccc(Cc3cnc(N)nc3N)cc2OC)cc1 [GW2580] (first compound 10 µM, partner dose 5 µM)	75.5%	81.2%	74.5%	101%	128%	77.9%	80.8%	99.2%	107%	140%
CN(c1ncccc1CNc1nc(Nc2ccc3c(c2)CC(=O)N3)ncc1C(F)(F)F)S(C)(=O)=O + Nc1ncn([C@H]2C[C@H](O)[C@@H](CO)O2)c(=O)n1 [decitabine] (first compound 0.4 µM, partner dose 0.5 µM)	64.6%	65.1%	79.8%	90.4%	101%	74%	81.5%	71.5%	57.7%	85.3%
CS(=O)(=O)c1ccc(C(=O)Nc2ccc(Cl)c(-c3ccccn3)c2)c(Cl)c1 [vismodegib] + C=CCNC1=C2C[C@@H](C)C[C@H](OC)[C@H](O)[C@@H](C)/C=C(\C)[C@H](OC(N)=O)[C@@H](OC)/C=C\C=C(/C)C(=O)NC(=CC1=O)C2=O [Tanespimycin] (first compound 5 µM, partner dose 0.01 µM)	78.2%	88.6%	66.3%	85.6%	107%	104%	96.4%	70.3%	23.8%	99.7%
C=C(c1ccc(C(=O)O)cc1)c1cc2c(cc1C)C(C)(C)CCC2(C)C [Bexarotene] + Nc1ncn([C@H]2C[C@H](O)[C@@H](CO)O2)c(=O)n1 [decitabine] (first compound 10 µM, partner dose 0.5 µM)	63%	59.5%	74.4%	–	84.8%	59.3%	–	64.5%	48.9%	71.8%
